The values that follow come from the supplement of paper PMC11417369.

± gives the standard deviation of the averaged measurements. The list shows a part of the results.

The subject of this test is PfAP2-EXP AP2 domain (GST-tagged). Description: gcPBM binding intensity (ln(normalized median fluorescence intensity)); higher = stronger DNA binding. The gist of the method: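 GST-fused DNA-binding domains of P. falciparum, expressed in E. coli, were applied at about 25 μg on average for 1 h to an Agilent 4 × 180k array of primer-extended double-stranded 36-bp intergenic genomic probes and negative controls. Binding intensity is the highest Masliner-normalised natural-log median intensity across replicate spots of either probe orientation, measured with Alexa488 anti-GST antibody and a 488 nm scan.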
On to “AGGTGATTAATATATACACACATACATATATATATA [CACACA_site8913]”, for which the “gcPBM binding intensity (ln)” value is 9.77 ± 0.44. Under “GTTTTATATTATATATGTACATATCCATGAGATATA [XGTACX_site3328]” stands 9.05 ± 0.5; under “AAATAAAAATAAAATAAAATAAAATTAAATGGGAAT [GTGCAC_negctrl_site349]”, 8.72 ± 0.39. Take “TTTAACTTTTATATAACACACATATTGTAATTATGT [CACACA_site6486]”: the “gcPBM binding intensity (ln)” value is 8.49 ± 0.33.

Regarding “ATGACAATTCAAAATTGTACATAAAAAAAAAAAAAA [XGTACX_site7560]”, the “gcPBM binding intensity (ln)” value stood at 8.49 ± 0.33.

On to “TGTAAACATAAGATATGTACTTATATCATATTATAA [XGTACX_site6883]”, for which the “gcPBM binding intensity (ln)” value came to 8.22 ± 0.35.

In the case of “AATAATTTGGTCTTATCAAAAATTAAAAATAAATAA [XGTACX_negctrl_site430]”, the “gcPBM binding intensity (ln)” value worked out at 8.19 ± 0.36. Regarding AAAAAACATTTTCGAGTGCATGTTTTGCTTTATTTC, the “gcPBM binding intensity (ln)” value worked out at 8.68 ± 0.32. With “TTAAATGTTAAAAGGGTGCTATTATATAAATGAAAA [GTGCAC_site9882]”, the “gcPBM binding intensity (ln)” value worked out at 8.7 ± 0.26.

On to “TTCATATGTTTTAACACACACGCATATATTATATAT [CACACA_site2007]”, for which the “gcPBM binding intensity (ln)” value turned out to be 8.99 ± 0.4. Under “AAAAAAATTTGGCATACACACACACCCCCACCCACA [CACACA_site8094]” stands 9.84 ± 0.13; under “ACCATATGTACATTTTTTTTTTTTTTTTTTTTTTTT [CACACA_negctrl_site1188]”, 9.05 ± 0.16.

Turning to “ATATATATATAATGTAGTACTATTTAATAATAAGCC [XGTACX_site1263]”, the “gcPBM binding intensity (ln)” value amounted to 9.775 ± 0.078. With “CACACCCACAGACACACACACACATATATAATATAT [CACACA_site594]” the figure was 8.91 ± 0.59; with “AAAAAAAAAAAAAAAGCACACACCAATGAGCAGCTT [CACACA_site1845]”, 8.66 ± 0.092; with “TAATATATGTATTATGCATGTGAATAAGCACTTGAT [TGCATGCA_site848]”, 8.87 ± 0.19.

Consider “ATATGTTACAAAGATTGTACTTATTAAGGAGCGACT [XGTACX_site5094]”, for which the “gcPBM binding intensity (ln)” value was found to be 8.7 ± 0.33.

For the sequence “TATAATCATATACACGCATGTATAAAATTTAATACT [TGCATGCA_site700]”, the “gcPBM binding intensity (ln)” value came to 8.5 ± 0.33. Under “ACATTCAAGCGTAATTGTACATACATATATATATAT [XGTACX_site8876]” stands 10 ± 0.36; under “ATGTATATAAATAGTAGTACATTATTTCACACTGTA [XGTACX_site2061]”, 8.63 ± 0.63; under “TATTGTATCCTTAATGCATGCACCAAATAAAAAAAG [TGCATGCA_site541]”, 10.21 ± 0.064.

Consider “AATGGAGTTTATAAGTATAAACGAGGGATACCTAAA [XGTACX_negctrl_site483]”, for which the “gcPBM binding intensity (ln)” value came to 8.87 ± 0.42. With “AATATAAATAATAGTAGTACATATATATCTCAGAAA [XGTACX_site4055]” the figure was 8.52 ± 0.33; with “TTATGTTGTAAATGCACACATACATATACGCAGTTT [CACACA_site3015]”, 8.46 ± 0.25. Under “TAAATAAATTTATACACACACACACCCATATATATA [CACACA_site849]” stands 8.88 ± 0.35.

As for “AAAAAATCAAAACACACACACACACTAGAAAAAAAA [CACACA_site4909]”, the “gcPBM binding intensity (ln)” value came out at 8.64 ± 0.56.

Turning to “ATTTTATCAAGAGGAAGTACATTACCCCATGAAAAA [XGTACX_site8295]”, the “gcPBM binding intensity (ln)” value came out at 8.71 ± 0.45. With “TATATTATATTTTTATGTACATATATGTTTTTTTTT [XGTACX_site8239]” the figure was 8.52 ± 0.092; with “AATAAAAATATATCCACACACATATATATATCTGTA [CACACA_site4481]”, 8.29 ± 0.3. With “TATATATATATATGATGTACATGAAAATTTCCAAAA [XGTACX_site5472]” the figure was 10.1 ± 0.22; with “ATATCTGAAGTGTAAAGTACATATATATATTCATAT [XGTACX_site4612]”, 8.53 ± 0.53; with “TATATTTTTTAATTCACACAAAAATGAAAAATATTT [CACACA_site6001]”, 8.29 ± 0.38. With “CAATTTTACTCATAAACACACATATAGATGTTATTA [CACACA_site7474]” the figure was 8.29 ± 0.32. Regarding “TATATATATTATAATACATGCGGTGATGAAAGTTAT [TGCATGCA_site924]”, the “gcPBM binding intensity (ln)” value worked out at 9.05 ± 0.34. In the case of “TATAAATATAGACACACACACACCAAAGCGTAGCGC [CACACA_site6179]”, the “gcPBM binding intensity (ln)” value amounted to 8.85 ± 0.33.

Take “GATTTGTCTTACAGTGGTACACTTATATATATGTGA [XGTACX_site2899]”: the “gcPBM binding intensity (ln)” value worked out at 8.82 ± 0.43. On to “AAAAAAAAAAAAAAAACACACAAGGATCATATATAT [CACACA_site3812]”, for which the “gcPBM binding intensity (ln)” value was found to be 8.71 ± 0.5.

Consider “AATATTTATTTTATATGTACATAATTTATTTTTAAT [XGTACX_site776]”, for which the “gcPBM binding intensity (ln)” value worked out at 8.63 ± 0.32. With “TATAATATATATATATTTATATATATCTTCCTAATC [GTGCAC_negctrl_site682]” the figure was 8.12 ± 0.42. Under “TTTTTTTATATAGACACAAAAGAAAATTACATATAC [CACACA_negctrl_site235]” stands 8.65 ± 0.35; under “TATGAAGTACACAATACACACTAATTATATATAAAT [CACACA_site5444]”, 8.59 ± 0.49; under “TTTTTAAAAAAACATACACACAAAAAAAAAAAAAAA [CACACA_site3935]”, 8.16 ± 0.5. Under “TCAACCAAAACATAAGCATGCAATATATTTTTATAC [TGCATGCA_site560]” stands 9.54 ± 0.16; under “TTTTATAATTTCTTCTGTACATATATATGAAAATAT [XGTACX_site74]”, 8.71 ± 0.47; under “AAAAAAAAATATAACAGTACATAAACATATGAATAT [XGTACX_site7093]”, 8.56 ± 0.42. For “TTATATATTTTTATGTGTACTTATATATATATATAT [XGTACX_site6211]”, the “gcPBM binding intensity (ln)” value was found to be 10 ± 0.13. Under “AACAAAAACACTTTTACACACATAAGTAAAATATAT [CACACA_site1994]” stands 8.58 ± 0.51; under “TACTTATTTAAAATAGTGCATGAATAGAAGATATAT [GTGCAC_site9756]”, 8.71 ± 0.28; under “CACAAAGACACAAACACACACACACCCACATACATA [CACACA_site452]”, 8.48 ± 0.52. With “ATTTCCCTATATAGAGCATGCACTATATTCAAATGA [TGCATGCA_site531]” the figure was 9.24 ± 0.3; with “GGTTCATATCTTAACACACACATACATATTATAGAT [CACACA_site7392]”, 8.81 ± 0.43. Consider “ATACAAATATACTTTTGTACGAAGAAATATATATAT [XGTACX_site3912]”, for which the “gcPBM binding intensity (ln)” value is 9.3. With “ATACAATTTATTTTAACACACGAATGAATTGATTAT [CACACA_site4160]” the figure was 8.52 ± 0.39; with “ATAAAAAAAATAAAAAGTACAAAAAAAAAAAATGGA [XGTACX_site136]”, 8.86 ± 0.61. With “TAAAGAAACTATTCAACACACGGTCTAATTATTACA [CACACA_site1064]” the figure was 8.31 ± 0.45. With “CAGGGCAGGGGGAAGGGTACACATAAAAGAAAATAA [XGTACX_site172]” the figure was 9.45 ± 0.23; with “TATTCTAAAGAAATTACACACATGCAATGAAAAAAA [CACACA_site6895]”, 8.9 ± 0.37; with “AAAAATAAACGACAGTGTACTAAATATTTAATTTTC [XGTACX_site3580]”, 8.72 ± 0.38. As to “TATAAATATATATTTTGTACTTAATATAAATTTATA [XGTACX_site7996]”, the “gcPBM binding intensity (ln)” value was determined as 8.33 ± 0.41. With “GAAAAAAGAAATTAAACATGCATCTGCAAATTTAAA [TGCATGCA_site974]” the figure was 8.34 ± 0.42; with “AATAATATTTAATACACACACCAGTTCTGCAAATTT [CACACA_site7712]”, 8.8 ± 0.35. Under “AATAGTAAAAGATATACACACACCAAAAAATATAAT [CACACA_site5293]” stands 9.02 ± 0.47. As to “TGCTACATTTTATGTACACACATATACAGATATATA [CACACA_site4646]”, the “gcPBM binding intensity (ln)” value turned out to be 8.42 ± 0.26. With “TGAATAAATCAAAGCACACATACACCCACATATATA [CACACA_site286]” the figure was 8.78 ± 0.49; with “ACATAATAAAAATAAATTCATAAGTAAATAAATAAA [TGCATGCA_negctrl_site186]”, 8.34 ± 0.44; with “CTAAAAAATAGTAAAAGTACATAAATAATTTTGCTT [XGTACX_site8919]”, 8.28 ± 0.32.

On to “ACAATTATTTTGTTCTTTAATGGTAGGTTCTATGTC [CACACA_negctrl_site1419]”, for which the “gcPBM binding intensity (ln)” value is 8.51 ± 0.39. As for “TTACACATGTTTAACTGTACACATAATAGCAATATT [XGTACX_site8545]”, the “gcPBM binding intensity (ln)” value was 8.98 ± 0.42. “AATACACGCAGACACACACACACACGCACATATATA [CACACA_site6447]”: the “gcPBM binding intensity (ln)” value came to 8.79 ± 0.53. Under “CATAAATTACTTTTTACACACTAAAATAAAATACAA [CACACA_site1135]” stands 8.44 ± 0.47. Under “AAAAAAAAAAAAAAAAAAAAAAAAAAAGATTATGAG [CACACA_negctrl_site1088]” stands 8.93 ± 0.085; under “TATAAAATACTGTATCGATGGGGGAGGGCGCAGGGG [TGCATGCA_negctrl_site250]”, 10.3 ± 0.11; under “TCAAATGTATATAATTGTACTTATCCTTTTCATTTT [XGTACX_site4879]”, 8.59 ± 0.42. With “AAAAATTAGAAACACACACACATATATATATATATT [CACACA_site1042]” the figure was 8.71 ± 0.22; with “TTTTAAGTTTTTGAATGTACGTAATTTGTAAATTCT [XGTACX_site2448]”, 8.21 ± 0.23. Consider “TTACTTGTTTATTTTTTTTTTTTTTTTTTTTTTGTT [TGCATGCA_negctrl_site103]”, for which the “gcPBM binding intensity (ln)” value turned out to be 8.06 ± 0.77. Under “TAATGGAGAAAATAATGTACTTAGATATTTGTTCTA [XGTACX_site6312]” stands 8.16 ± 0.36; under “TTTAAATATTTTATAGCATGCTACCAATATGTATAT [TGCATGCA_site291]”, 8.86 ± 0.33; under “AAGAACAAACAAAATAGTACAATATATATATATATA [XGTACX_site4258]”, 10 ± 0.28.

As to “AACTATAATTAAAGGATGCACTTGAAGGCATTTCAA [GTGCAC_site9689]”, the “gcPBM binding intensity (ln)” value is 8.34 ± 0.35. With “TATTCATAACAATGATGTACATATATTTTTTTTTTC [XGTACX_site5619]” the figure was 8.4 ± 0.47. As to “CATATATAGATATATACACACATATAGATTTTCTTT [CACACA_site6797]”, the “gcPBM binding intensity (ln)” value worked out at 8.31 ± 0.38.

“GACATATATAGCAATCGTACATATATTATAAAAGGT [XGTACX_site6891]”: the “gcPBM binding intensity (ln)” value turned out to be 9.32 ± 0.6.

“CGTTTGGTACACGTAGTGTTTTCGTTTGAATGTACC [GTGCAC_negctrl_site201]”: the “gcPBM binding intensity (ln)” value came out at 8.7 ± 0.36. With “TTTAATTTTCCCTTCACACATAATATATATCTGTAT [CACACA_site5370]” the figure was 8.7 ± 0.43; with “TTTAATCAATGATTTAATGAAAAAAGCAAAAAAAAA [GTGCAC_negctrl_site213]”, 8.38 ± 0.45; with “AAAAGGAACAGACACACACACATATATAAATATGTA [CACACA_site7656]”, 8.4 ± 0.59. Under “AAATAGACATAAAAAGGTACACAAATTGTGTATTAA [XGTACX_site527]” stands 8.68 ± 0.36.
